# Source: paper PMC9911399, “Two distinct binding modes provide the RNA-binding protein RbFox with extraordinary sequence specificity”
# Changes are numbered by the printed parent chain; changes in the protein carry UniProt numbers. The list shows a part of the results.
# T1: RBFOX1 RRM (Homo sapiens, UniProt Q9NWB1 109-208)
# T1 sequence: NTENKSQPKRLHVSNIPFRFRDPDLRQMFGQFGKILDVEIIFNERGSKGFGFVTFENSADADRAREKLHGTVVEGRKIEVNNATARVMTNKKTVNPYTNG
# B1: AAGACGG (DNA:RNA)
# RNA: GGGAGACCGGAAUUCAGAUUGUCCAAGACGGUUAAAUCCCGUCGUAGCCACCA
# DNA 1: CAATCTGAATTCCGGTCTCCC
# DNA 2: TGGTGGCTACGACGGGATT
# B2: UCUGUUU (DNA:RNA)
# RNA: GGGAGACCGGAAUUCAGAUUGUCCUCUGUUUUUAAAUCCCGUCGUAGCCACCA
# DNA 1: CAATCTGAATTCCGGTCTCCC
# DNA 2: TGGTGGCTACGACGGGATT
# B3: GGAGAGU (DNA:RNA)
# RNA: B2 RNA with U25G, C26G, U27A, U29A, U30G
# DNA 1: CAATCTGAATTCCGGTCTCCC
# DNA 2: TGGTGGCTACGACGGGATT
# B4: UCCGACU (DNA:RNA)
# RNA: B2 RNA with U27C, U29A, U30C
# DNA 1: CAATCTGAATTCCGGTCTCCC
# DNA 2: TGGTGGCTACGACGGGATT
# B5: CGACUCC (DNA:RNA)
# RNA: B2 RNA with U25C, C26G, U27A, G28C, U30C, U31C
# DNA 1: CAATCTGAATTCCGGTCTCCC
# DNA 2: TGGTGGCTACGACGGGATT
# B6: AGUCGCC (DNA:RNA)
# RNA: B1 RNA with A26G, G27U, A28C, C29G, G30C, G31C
# DNA 1: CAATCTGAATTCCGGTCTCCC
# DNA 2: TGGTGGCTACGACGGGATT
# B7: UGUUCCA (DNA:RNA)
# RNA: B2 RNA with C26G, G28U, U29C, U30C, U31A
# DNA 1: CAATCTGAATTCCGGTCTCCC
# DNA 2: TGGTGGCTACGACGGGATT
# B8: GUCAACA (DNA:RNA)
# RNA: B1 RNA with A25G, A26U, G27C, C29A, G30C, G31A
# DNA 1: CAATCTGAATTCCGGTCTCCC
# DNA 2: TGGTGGCTACGACGGGATT
# B9: AACCUGC (DNA:RNA)
# RNA: B1 RNA with G27C, A28C, C29U, G31C
# DNA 1: CAATCTGAATTCCGGTCTCCC
# DNA 2: TGGTGGCTACGACGGGATT
# B10: GCCGAUC (DNA:RNA)
# RNA: B2 RNA with U25G, U27C, U29A, U31C
# DNA 1: CAATCTGAATTCCGGTCTCCC
# DNA 2: TGGTGGCTACGACGGGATT
# B11: CCAAUGU (DNA:RNA)
# RNA: B2 RNA with U25C, U27A, G28A, U30G
# DNA 1: CAATCTGAATTCCGGTCTCCC
# DNA 2: TGGTGGCTACGACGGGATT
# B12: CCGUACC (DNA:RNA)
# RNA: B1 RNA with A25C, A26C, A28U, C29A, G30C, G31C
# DNA 1: CAATCTGAATTCCGGTCTCCC
# DNA 2: TGGTGGCTACGACGGGATT
# B13: AAAACUU (DNA:RNA)
# RNA: B1 RNA with G27A, G30U, G31U
# DNA 1: CAATCTGAATTCCGGTCTCCC
# DNA 2: TGGTGGCTACGACGGGATT
# B14: ACACUAU (DNA:RNA)
# RNA: B2 RNA with U25A, U27A, G28C, U30A
# DNA 1: CAATCTGAATTCCGGTCTCCC
# DNA 2: TGGTGGCTACGACGGGATT
# B15: UUACGAC (DNA:RNA)
# RNA: B2 RNA with C26U, U27A, G28C, U29G, U30A, U31C
# DNA 1: CAATCTGAATTCCGGTCTCCC
# DNA 2: TGGTGGCTACGACGGGATT
# B16: GUGAAAG (DNA:RNA)
# RNA: B1 RNA with A25G, A26U, C29A, G30A
# DNA 1: CAATCTGAATTCCGGTCTCCC
# DNA 2: TGGTGGCTACGACGGGATT
# B17: UAGUCGA (DNA:RNA)
# RNA: B1 RNA with A25U, A28U, G31A
# DNA 1: CAATCTGAATTCCGGTCTCCC
# DNA 2: TGGTGGCTACGACGGGATT
# B18: GAAUUAG (DNA:RNA)
# RNA: B1 RNA with A25G, G27A, A28U, C29U, G30A
# DNA 1: CAATCTGAATTCCGGTCTCCC
# DNA 2: TGGTGGCTACGACGGGATT
# B19: CAGUAUC (DNA:RNA)
# RNA: B1 RNA with A25C, A28U, C29A, G30U, G31C
# DNA 1: CAATCTGAATTCCGGTCTCCC
# DNA 2: TGGTGGCTACGACGGGATT
# B20: UGGCAAC (DNA:RNA)
# RNA: B1 RNA with A25U, A26G, A28C, C29A, G30A, G31C
# DNA 1: CAATCTGAATTCCGGTCTCCC
# DNA 2: TGGTGGCTACGACGGGATT
# B21: GUUCUGA (DNA:RNA)
# RNA: B2 RNA with U25G, C26U, G28C, U30G, U31A
# DNA 1: CAATCTGAATTCCGGTCTCCC
# DNA 2: TGGTGGCTACGACGGGATT
# B22: UGAAUUA (DNA:RNA)
# RNA: B2 RNA with C26G, U27A, G28A, U31A
# DNA 1: CAATCTGAATTCCGGTCTCCC
# DNA 2: TGGTGGCTACGACGGGATT
# B23: CAUAAUC (DNA:RNA)
# RNA: B1 RNA with A25C, G27U, C29A, G30U, G31C
# DNA 1: CAATCTGAATTCCGGTCTCCC
# DNA 2: TGGTGGCTACGACGGGATT
# B24: CCAAUUC (DNA:RNA)
# RNA: B2 RNA with U25C, U27A, G28A, U31C
# DNA 1: CAATCTGAATTCCGGTCTCCC
# DNA 2: TGGTGGCTACGACGGGATT
# B25: AGGCACU (DNA:RNA)
# RNA: B1 RNA with A26G, A28C, C29A, G30C, G31U
# DNA 1: CAATCTGAATTCCGGTCTCCC
# DNA 2: TGGTGGCTACGACGGGATT
# B26: CUUGUCU (DNA:RNA)
# RNA: B2 RNA with U25C, C26U, U30C
# DNA 1: CAATCTGAATTCCGGTCTCCC
# DNA 2: TGGTGGCTACGACGGGATT
# B27: AACAGGA (DNA:RNA)
# RNA: B1 RNA with G27C, C29G, G31A
# DNA 1: CAATCTGAATTCCGGTCTCCC
# DNA 2: TGGTGGCTACGACGGGATT
# B28: CCUCGAU (DNA:RNA)
# RNA: B2 RNA with U25C, G28C, U29G, U30A
# DNA 1: CAATCTGAATTCCGGTCTCCC
# DNA 2: TGGTGGCTACGACGGGATT
# B29: CGAUCUC (DNA:RNA)
# RNA: B1 RNA with A25C, A26G, G27A, A28U, G30U, G31C
# DNA 1: CAATCTGAATTCCGGTCTCCC
# DNA 2: TGGTGGCTACGACGGGATT
# B30: CGGACAG (DNA:RNA)
# RNA: B1 RNA with A25C, A26G, G30A
# DNA 1: CAATCTGAATTCCGGTCTCCC
# DNA 2: TGGTGGCTACGACGGGATT
# B31: CGGGGGA (DNA:RNA)
# RNA: B1 RNA with A25C, A26G, A28G, C29G, G31A
# DNA 1: CAATCTGAATTCCGGTCTCCC
# DNA 2: TGGTGGCTACGACGGGATT
# Molecular target: T1, RBFOX1 RRM
# Experiment: EMSA; HiTS-Eq, 1 nM pool, 10 min; buffer printed only for the single-RNA assays: 10 mM Tris pH 7.5, 150 mM NaCl, 3.4 mM EDTA, 0.001% NP-40, 30 C
# Settings: tags: His6 N-terminal (pET28a); label: 5' 32P
# Summary of the method: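 Purified wild-type or mutant RbFox RRM at increasing concentrations was equilibrated with 1 nM of 5′-radiolabelled RNA carrying 7 randomized nucleotides for 10 min in 50 µL. Unbound RNA was separated by 8% native PAGE and sequenced. Relative association constants came from read-count changes of each RNA species compared with the control reaction, normalised to the cognate motif.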
row,Binder,binding signal
1,B1,0.00528 KA relative to UGCAUGU
2,B2,0.018 KA relative to UGCAUGU
3,B3,0.0264 KA relative to UGCAUGU
4,B4,0.00823 KA relative to UGCAUGU
5,B5,0.00792 KA relative to UGCAUGU
6,B6,0.0119 KA relative to UGCAUGU
7,B7,0.0162 KA relative to UGCAUGU
8,B8,0.00281 KA relative to UGCAUGU
9,B9,0.00657 KA relative to UGCAUGU
10,B10,0.0172 KA relative to UGCAUGU
11,B11,0.00233 KA relative to UGCAUGU
12,B12,0.00711 KA relative to UGCAUGU
13,B13,0.0016 KA relative to UGCAUGU
14,B14,0.00183 KA relative to UGCAUGU
15,B15,0.00463 KA relative to UGCAUGU
16,B16,0.0155 KA relative to UGCAUGU

row,Binder,binding signal
1,B17,0.0129 KA relative to UGCAUGU
2,B18,0.00996 KA relative to UGCAUGU
3,B19,0.00592 KA relative to UGCAUGU
4,B20,0.0191 KA relative to UGCAUGU
5,B21,0.0306 KA relative to UGCAUGU
6,B22,0.0109 KA relative to UGCAUGU
7,B23,0.00133 KA relative to UGCAUGU
8,B24,0.00113 KA relative to UGCAUGU
9,B25,0.0105 KA relative to UGCAUGU
10,B26,0.0146 KA relative to UGCAUGU
11,B27,0.00197 KA relative to UGCAUGU
12,B28,0.00735 KA relative to UGCAUGU
13,B29,0.00942 KA relative to UGCAUGU
14,B30,0.0217 KA relative to UGCAUGU
15,B31,0.0116 KA relative to UGCAUGU
